# Test results: a collection of fitness landscapes (doi:10.1016/j.celrep.2020.107928)
# The full ranking holds about 81,000 sequences; the median of “one-hybrid fitness for binding parS DNA” is about -0.17, and the highest 2% start at about 0.51. The list shows a part of the results.
# B1: Caulobacter ParB omega fusion; a variant is named by its letters at X, in order, B8GW30 (parent)
# chain: MESVVVGEPGMSEGRRGLGRGLSALLGEVDAAPAQAPGEQLGGSREAPIEILQRNPDQPRRTFREEDLEDLSNSIREKGVLQPILVRPSPDTAGEYQIVAGERAWRAAQRAGLKTVPIMVRELDDLAVLEIGIIENVQRADLNVLEEALSYKVLMEKFERTQENIAQTIGKSXSHVANXMRLLXLPDEVQSYLVSGELTAXHARAIAAAADPVALAKQIIEGGLSVRETEALARKAPNLSAGKSKGGRPPRVKDTDTQALESDLSSVLGLDVSIDHRGSTGTLTITYATLEQLDDLCNRLTRGI
# Variants of: B1
# Experiment: one-hybrid fitness for binding parS DNA (scaled: cognate 1, non-cognate 0); higher = stronger binding
# Conditions: with parS DNA site
# Procedure, shortened: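 Bacterial one-hybrid selection in E. coli USO rpoZ- hisB- pyrF- with a HIS3 reporter carrying the site 19 bp from the promoter, screening Caulobacter ParB libraries with four specificity codons randomised (NNS). Cells grew 48 hours at 37°C on M9-minus-histidine plus 0.1 mM IPTG and 5 mM 3-AT. Plasmids before and after selection were Illumina-sequenced, three replicate libraries pooled, and variants under 10 reads dropped. Fitness is the log change in variant-to-wild-type read ratio, rescaled to cognate 1, non-cognate 0.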
row,Variant,one-hybrid fitness for binding parS DNA
1,RSEP,≤ 0.2
2,HPPI,≤ 0.2
3,KVQC,≤ 0.2
4,MPKL,≤ 0.2
5,RDRM,≤ 0.2
6,IHNN,≤ 0.2
7,QIEE,≤ 0.2
8,ILSS,≤ 0.2
9,TRHD,≤ 0.2
10,REHG,0.236
11,TTLT,≤ 0.2
12,WPQV,≤ 0.2
13,PSIM,≤ 0.2
14,LSPV,≤ 0.2
15,QIAS,≤ 0.2
16,LIAK,≤ 0.2
17,TQQH,≤ 0.2
18,GSGC,≤ 0.2
19,PLDA,≤ 0.2
20,QHWF,≤ 0.2
21,AGQV,≤ 0.2
22,PVGQ,≤ 0.2
23,GRQT,≤ 0.2
24,QQRT,≤ 0.2

row,Variant,one-hybrid fitness for binding parS DNA
1,QRTS,≤ 0.2
2,GTQC,≤ 0.2
3,NMDM,≤ 0.2
4,FTPH,≤ 0.2
5,VLNW,≤ 0.2
6,MLQK,≤ 0.2
7,LCPL,≤ 0.2
8,RQNN,0.435
9,SPDE,≤ 0.2
10,HRYT,0.202
11,TVPA,≤ 0.2
12,NETV,≤ 0.2
13,SYYM,≤ 0.2
14,DNLY,≤ 0.2
15,IMHE,≤ 0.2
16,ATMH,≤ 0.2
17,PRRI,≤ 0.2
18,SNHD,≤ 0.2
19,LLNK,≤ 0.2
20,GLPE,≤ 0.2
21,LAEM,≤ 0.2
22,ESRP,≤ 0.2
23,TKAE,≤ 0.2
24,ARGC,≤ 0.2

row,Variant,one-hybrid fitness for binding parS DNA
1,QMWG,≤ 0.2
2,DGAK,≤ 0.2
3,YCPV,≤ 0.2
4,GWLG,≤ 0.2
5,CIYD,≤ 0.2
6,TAMY,≤ 0.2
7,AVKV,≤ 0.2
8,GNLL,≤ 0.2
9,PQPE,≤ 0.2
10,CCTP,≤ 0.2
11,FRPH,≤ 0.2
12,ENSR,≤ 0.2
13,QGVI,≤ 0.2
14,WRDT,≤ 0.2
15,YTHT,≤ 0.2
16,WAFC,≤ 0.2
17,CHTE,≤ 0.2
18,ANEM,≤ 0.2
19,RSKH,0.274
20,RPWT,≤ 0.2
21,RGWN,≤ 0.2
22,QAKD,≤ 0.2
23,STTL,≤ 0.2
24,NPMR,≤ 0.2

row,Variant,one-hybrid fitness for binding parS DNA
1,YAVS,≤ 0.2
2,AQDS,≤ 0.2
3,IQDS,≤ 0.2
4,RCPQ,≤ 0.2
5,GCWR,≤ 0.2
6,KAGT,≤ 0.2
7,PNYA,≤ 0.2
8,YGPR,≤ 0.2
9,DTYA,≤ 0.2
10,GALY,≤ 0.2
11,YAEK,≤ 0.2
12,PDPE,≤ 0.2
13,RPWA,≤ 0.2
14,RELR,≤ 0.2
15,IGYC,≤ 0.2
16,SVLS,≤ 0.2
17,QEVC,≤ 0.2
18,HHEC,≤ 0.2
19,SMDF,≤ 0.2
20,ADLF,≤ 0.2
21,PLKW,≤ 0.2
22,ENIK,≤ 0.2
23,QPTK,≤ 0.2
24,AVDR,≤ 0.2

row,Variant,one-hybrid fitness for binding parS DNA
1,RVMM,0.287
2,RQYS,1
3,VVLG,≤ 0.2
4,QVPM,≤ 0.2
5,EPVR,≤ 0.2
6,WKKR,≤ 0.2
7,TAPM,≤ 0.2
8,DNRY,≤ 0.2
9,RIDQ,≤ 0.2
10,NRWA,≤ 0.2
11,LREF,≤ 0.2
12,AYQY,≤ 0.2
13,EKEG,≤ 0.2
14,ESQE,≤ 0.2
15,PTIY,≤ 0.2
16,IFTG,≤ 0.2
17,ASTH,≤ 0.2
18,SAYT,≤ 0.2
19,EVSV,≤ 0.2
20,ITHW,≤ 0.2
21,KRSL,≤ 0.2
22,SYGF,≤ 0.2
23,QRSF,≤ 0.2
24,NQTF,0.258

row,Variant,one-hybrid fitness for binding parS DNA
1,VYHA,≤ 0.2
2,RSMH,0.245
3,QQGF,≤ 0.2
4,LKFS,≤ 0.2
5,PNTF,≤ 0.2
6,RLCR,≤ 0.2
7,GMYA,≤ 0.2
8,AEHS,≤ 0.2
9,TFRD,≤ 0.2
10,NEQS,≤ 0.2
11,LIHA,≤ 0.2
12,KSQI,≤ 0.2
13,GDDT,≤ 0.2
14,KGYF,≤ 0.2
15,QGDT,≤ 0.2
16,LDIS,≤ 0.2
17,LYYC,≤ 0.2
18,GQSM,≤ 0.2
19,RENV,≤ 0.2
20,RIKM,0.325
21,HNLL,≤ 0.2
22,PPPM,≤ 0.2
23,AIHC,≤ 0.2
24,VMSA,≤ 0.2

row,Variant,one-hybrid fitness for binding parS DNA
1,VTCS,≤ 0.2
2,TNQR,≤ 0.2
3,FYTR,≤ 0.2
4,PQVA,≤ 0.2
5,SMVP,≤ 0.2
6,LCAW,≤ 0.2
7,CNNV,≤ 0.2
8,LINF,≤ 0.2
9,TTYV,≤ 0.2
10,CPIS,≤ 0.2
11,VDMS,≤ 0.2
12,PHRW,≤ 0.2
13,SLKA,≤ 0.2
14,THIF,≤ 0.2
15,VYGL,≤ 0.2
16,TNPC,≤ 0.2
17,TYSA,≤ 0.2
18,CIQG,≤ 0.2
19,RWFR,≤ 0.2
20,GATN,≤ 0.2
21,MGFL,≤ 0.2
22,VNTR,≤ 0.2
23,LTHK,≤ 0.2
24,QKQG,≤ 0.2

row,Variant,one-hybrid fitness for binding parS DNA
1,PSRD,≤ 0.2
2,ALEG,≤ 0.2
3,HLQY,≤ 0.2
4,KYKK,≤ 0.2
5,SKFS,≤ 0.2
6,RYSV,≤ 0.2
7,RAVP,≤ 0.2
8,GLKS,≤ 0.2
9,PRMP,≤ 0.2
10,HTKA,≤ 0.2
11,CKST,≤ 0.2
12,TSTC,≤ 0.2
13,EMHY,≤ 0.2
14,AVKC,≤ 0.2
15,FIVE,≤ 0.2
16,PRTR,≤ 0.2
17,TVSC,≤ 0.2
18,RLYN,0.487
19,QATM,≤ 0.2
20,RNRA,0.534
21,KYAC,≤ 0.2
22,HMYT,0.26
23,FICL,≤ 0.2
24,MTPT,≤ 0.2

row,Variant,one-hybrid fitness for binding parS DNA
1,SALH,≤ 0.2
2,GYAG,≤ 0.2
3,DTKE,≤ 0.2
4,RTNF,0.403
5,AIRL,≤ 0.2
6,KFSL,≤ 0.2
7,ENRS,≤ 0.2
8,RGTV,≤ 0.2
9,QPGV,≤ 0.2
10,IEIW,≤ 0.2
11,AQLR,≤ 0.2
12,FFRV,≤ 0.2
13,QCMV,≤ 0.2
14,SKST,≤ 0.2
15,TWLS,≤ 0.2
16,AQPW,≤ 0.2
17,PKDC,≤ 0.2
18,PQQP,≤ 0.2
19,TRYC,≤ 0.2
20,QTNR,≤ 0.2
21,TMPM,≤ 0.2
22,ISKS,≤ 0.2
23,WADG,≤ 0.2
24,PSFV,≤ 0.2

row,Variant,one-hybrid fitness for binding parS DNA
1,VRKH,≤ 0.2
2,LCNM,≤ 0.2
3,CDHF,≤ 0.2
4,PCCC,≤ 0.2
5,LYVG,≤ 0.2
6,GHND,≤ 0.2
7,HEER,≤ 0.2
8,MQLP,≤ 0.2
9,WNHC,≤ 0.2
10,HDRT,≤ 0.2
11,TGHS,≤ 0.2
12,HNRP,≤ 0.2
13,FKPT,≤ 0.2
14,YHLT,≤ 0.2
15,TITR,≤ 0.2
16,TGHF,≤ 0.2
17,QCNC,≤ 0.2
18,LRNS,≤ 0.2
19,CVLG,≤ 0.2
20,DNYM,≤ 0.2
21,SWQI,≤ 0.2
22,RPLY,≤ 0.2
23,YHCN,≤ 0.2
24,LRVR,≤ 0.2

row,Variant,one-hybrid fitness for binding parS DNA
1,VHLK,≤ 0.2
2,VNEL,≤ 0.2
3,PFAY,≤ 0.2
4,NNTL,≤ 0.2
5,YTDS,≤ 0.2
6,EKSL,≤ 0.2
7,AKYT,≤ 0.2
8,IVQY,≤ 0.2
9,ENKS,≤ 0.2
10,RTIS,1.01
11,GRIT,≤ 0.2
12,ENLS,≤ 0.2
13,LSHM,≤ 0.2
14,DNDG,≤ 0.2
15,AQPS,≤ 0.2
16,TSMR,≤ 0.2
17,PMAW,≤ 0.2
18,FDNR,≤ 0.2
19,WLHS,≤ 0.2
20,LVWT,≤ 0.2
21,FTLT,≤ 0.2
22,TLSF,≤ 0.2
23,CVAG,≤ 0.2
24,VLVR,≤ 0.2

row,Variant,one-hybrid fitness for binding parS DNA
1,HAWG,≤ 0.2
2,ESVP,≤ 0.2
3,DTHV,≤ 0.2
4,APCC,≤ 0.2
5,LMIQ,≤ 0.2
6,RCEC,0.866
7,QDTT,≤ 0.2
8,LKWV,≤ 0.2
9,ERGA,≤ 0.2
10,LSDV,≤ 0.2
11,RYVF,≤ 0.2
12,NIFS,≤ 0.2
13,RYMC,0.994
14,LMQG,≤ 0.2
15,MTAY,≤ 0.2
16,QHSF,≤ 0.2
17,RMDN,0.375
18,CFLC,≤ 0.2
19,RHIY,0.207
20,IVFT,≤ 0.2
21,DPIG,≤ 0.2
22,AIVP,≤ 0.2
23,NCEM,≤ 0.2
24,RMWR,≤ 0.2

row,Variant,one-hybrid fitness for binding parS DNA
1,WQPK,≤ 0.2
2,APWK,≤ 0.2
3,PSGE,≤ 0.2
4,CNLT,≤ 0.2
5,QLRS,≤ 0.2
6,ILAK,≤ 0.2
7,NFPF,≤ 0.2
8,LEAN,≤ 0.2
9,LVPS,≤ 0.2
10,RMRV,≤ 0.2
11,ALPG,≤ 0.2
12,VALV,≤ 0.2
13,HAYL,≤ 0.2
14,KKVG,≤ 0.2
15,TWRH,≤ 0.2
16,VDES,≤ 0.2
17,YRFT,≤ 0.2
18,RGEG,0.474
